Hit rate of the full screen: of about 310,000 compounds, about 2,200 (0.71%) showed an effect of 50% or more. The effect is printed as a negative number. The list shows a part of the results.

The target of the test is human ether-à-go-go-related gene (hERG) potassium channel (human, UniProt Q12809). The test is described as follows: primary screen, population patch clamp on CHO cells stably expressing hERG.
Chain of human ether-à-go-go-related gene (hERG) potassium channel (Q12809 whole entry, looked up): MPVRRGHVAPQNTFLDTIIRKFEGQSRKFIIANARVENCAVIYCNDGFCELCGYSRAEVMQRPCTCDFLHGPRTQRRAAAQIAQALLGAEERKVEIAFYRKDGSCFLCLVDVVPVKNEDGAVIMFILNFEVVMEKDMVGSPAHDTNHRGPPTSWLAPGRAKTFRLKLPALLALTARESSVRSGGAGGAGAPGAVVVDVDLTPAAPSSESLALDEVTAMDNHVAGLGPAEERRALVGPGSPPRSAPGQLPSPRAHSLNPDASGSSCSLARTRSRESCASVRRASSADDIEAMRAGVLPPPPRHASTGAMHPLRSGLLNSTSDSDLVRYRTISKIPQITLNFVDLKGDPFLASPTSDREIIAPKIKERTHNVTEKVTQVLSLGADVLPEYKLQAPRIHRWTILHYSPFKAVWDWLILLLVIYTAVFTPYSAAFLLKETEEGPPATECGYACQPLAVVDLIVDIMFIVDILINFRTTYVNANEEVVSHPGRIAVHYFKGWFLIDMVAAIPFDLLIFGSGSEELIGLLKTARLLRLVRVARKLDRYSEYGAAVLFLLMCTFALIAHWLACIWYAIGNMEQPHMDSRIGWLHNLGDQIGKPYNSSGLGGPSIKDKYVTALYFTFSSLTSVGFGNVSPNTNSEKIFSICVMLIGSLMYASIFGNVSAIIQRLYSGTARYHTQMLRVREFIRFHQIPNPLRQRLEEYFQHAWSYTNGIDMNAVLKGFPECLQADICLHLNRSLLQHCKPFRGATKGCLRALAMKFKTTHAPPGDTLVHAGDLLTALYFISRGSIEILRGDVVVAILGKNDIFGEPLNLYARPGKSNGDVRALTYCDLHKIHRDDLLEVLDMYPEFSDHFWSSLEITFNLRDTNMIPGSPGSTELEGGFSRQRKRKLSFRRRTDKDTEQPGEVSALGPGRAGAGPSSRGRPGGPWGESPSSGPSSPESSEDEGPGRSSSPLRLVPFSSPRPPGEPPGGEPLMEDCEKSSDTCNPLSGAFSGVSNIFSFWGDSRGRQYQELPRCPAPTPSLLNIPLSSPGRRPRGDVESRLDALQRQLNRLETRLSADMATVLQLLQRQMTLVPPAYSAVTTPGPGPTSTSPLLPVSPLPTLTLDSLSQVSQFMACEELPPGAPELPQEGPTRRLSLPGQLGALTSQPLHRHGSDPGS
In the case of `CS/C(=C/[N+](=O)[O-])Nc1cccc2c1C(C)CC2(C)C` (stereo not shown), the “hERG current change (%, negative = inhibition) at 1uM” value was found to be 1.56%.

On to `CCNS(=O)(=O)c1ccc(Br)c(OC)c1`, for which the “hERG current change (%, negative = inhibition) at 1uM” value was determined as 10.4%.

Take `Cn1c(NC(=O)c2ccccc2)c(-c2cccs2)c(=O)c2ccccc21`: the “hERG current change (%, negative = inhibition) at 1uM” value is 15.7%.

Regarding `Cn1ncc(Cl)c1C(=O)NNC(=O)Nc1cccc2ccccc12`, the “hERG current change (%, negative = inhibition) at 1uM” value is reported as 11.5%.

As to `CCOC(=O)N1CCC(N(CCN(C)C)C(=S)Nc2ccccc2OCC)CC1`, the “hERG current change (%, negative = inhibition) at 1uM” value amounted to 5.48%.

For the molecule `COc1ccc(CNC(=O)CNS(=O)(=O)c2cccc(C#N)c2)cc1OC`, the “hERG current change (%, negative = inhibition) at 1uM” value is listed as 8.72%.

In the case of `CN(C)NC(=S)NC1(C)CCS(=O)(=O)C1` (stereo not shown), the “hERG current change (%, negative = inhibition) at 1uM” value is given as 9.47%.

For the molecule `CCC(C)[C@H]1CN=C(N)N1CCc1cccc(F)c1` (stereo partly shown), the “hERG current change (%, negative = inhibition) at 1uM” value is on record as -2.41%.

As to `CN(C)C(=O)CSc1nnc(-c2ccc(S(=O)(=O)N3CCCC3)cc2)n1C`, the “hERG current change (%, negative = inhibition) at 1uM” value is given as 17.3%.

With `CCOc1cc(/C=C2\CCCc3c2nc2ccccc2c3C(=O)O)ccc1OC`, the “hERG current change (%, negative = inhibition) at 1uM” value is 12.8%.

Turning to `Cc1ccc(C2=CSC3=NNC4(CCCCC4)NN23)cc1`, the “hERG current change (%, negative = inhibition) at 1uM” value was 12.7%.

In the case of `CC(=O)Nc1sc(N)nc1-c1ccccc1`, the “hERG current change (%, negative = inhibition) at 1uM” value turned out to be 8.87%.

In the case of `CCc1cccc2cc3c(N)c(C(=O)Nc4ccc(S(=O)(=O)N5CCCC5)cc4)sc3nc12`, the “hERG current change (%, negative = inhibition) at 1uM” value stood at 10.5%.

Turning to `COc1ccc(NC(=O)CCc2nc(-c3ccccc3F)no2)cc1`, the “hERG current change (%, negative = inhibition) at 1uM” value is recorded as 2.69%.

Regarding `CCn1c(COc2ccc(Cl)cc2)nnc1SCC(=O)Nc1ccc2c(c1)OCCO2`, the “hERG current change (%, negative = inhibition) at 1uM” value is 18.4%.

As to `CC(/C=C1\SC(=S)N(CC(=O)O)C1=O)=C\c1ccccc1`, the “hERG current change (%, negative = inhibition) at 1uM” value is given as 12.5%.

Take `CC(C)C(c1nnnn1C1CCCC1)N1CCOCC1` (stereo not shown): the “hERG current change (%, negative = inhibition) at 1uM” value was found to be 12%.

As for `CCOc1ccc(-c2nnc(SCC(=O)N3CCCC3)o2)cc1`, the “hERG current change (%, negative = inhibition) at 1uM” value is on record as 7.9%.

`Cc1nn2c(N3CCN(C)CC3)c3c(nc2c1-c1ccccc1)CCCC3`: the “hERG current change (%, negative = inhibition) at 1uM” value is -1.53%.

Regarding `Cc1ccc(NC(=O)COc2ncnc3sccc23)cc1S(=O)(=O)N(C)C`, the “hERG current change (%, negative = inhibition) at 1uM” value is given as -1.17%.

Take `O=C(Nc1ccc(Br)cc1Br)c1cccc2c1C(=O)N(C1CCCCC1)C2`: the “hERG current change (%, negative = inhibition) at 1uM” value came out at 19.3%.

Regarding `Cc1cc(OCC(=O)N2CCC(C(=O)O)CC2)c2c3c(c(=O)oc2c1)CCC3`, the “hERG current change (%, negative = inhibition) at 1uM” value is recorded as -6.23%.

For the molecule `CCOC(=O)C1CCN(S(=O)(=O)c2ccc3oc(=O)ccc3c2)CC1`, the “hERG current change (%, negative = inhibition) at 1uM” value is given as -78.2%.

`COc1cccc(C(c2nnnn2CC2CCCO2)N2CCN(C(=O)c3ccco3)CC2)c1OC.Cl` (stereo not shown): the “hERG current change (%, negative = inhibition) at 1uM” value is given as 8.64%.

With `CC(C)CCn1nnnc1CN1CCN(C(c2ccccc2)c2ccccc2)CC1`, the “hERG current change (%, negative = inhibition) at 1uM” value is 15.2%.

For the molecule `COCCNc1nc(C)cc(-c2cc(C(=O)NCc3ccccc3)on2)n1`, the “hERG current change (%, negative = inhibition) at 1uM” value was 7%.

`S=C(NC1CCCCC1)N1CCN(c2ccccn2)CC1`: the “hERG current change (%, negative = inhibition) at 1uM” value is listed as 3.76%.

With `Cc1oc(-c2ccc3c(c2)OCCO3)cc1C(=O)O`, the “hERG current change (%, negative = inhibition) at 1uM” value is listed as -5.7%.

As for `COC(=O)CSc1nnc(COc2ccc3ccccc3c2)o1`, the “hERG current change (%, negative = inhibition) at 1uM” value came to 17.6%.

Regarding `CN(C)c1ccc(C2CC(=O)NC3=C2C(=O)CC(C)(C)C3)cc1` (stereo not shown), the “hERG current change (%, negative = inhibition) at 1uM” value was 9.28%.

With `COc1ccccc1CCN1CCCC(CN(C)C(=O)CCC(=O)N(C)C)C1` (stereo not shown), the “hERG current change (%, negative = inhibition) at 1uM” value was found to be 12.2%.

On to `O=C1NC2(CCc3ccccc3C2)C(=O)N1CCOc1cccc(Cl)c1` (stereo not shown), for which the “hERG current change (%, negative = inhibition) at 1uM” value is -8.69%.

For the molecule `O=S(=O)(Nc1ccc(O)c(Sc2nc3ccccc3s2)c1)c1cccc2ccccc12`, the “hERG current change (%, negative = inhibition) at 1uM” value turned out to be 11.1%.

On to `Cn1c(=NC(=O)c2ccc(S(=O)(=O)N3CCCc4ccccc43)cc2)sc2cc(S(C)(=O)=O)ccc21`, for which the “hERG current change (%, negative = inhibition) at 1uM” value is 9.4%.

Take `O=Cc1[nH]c2ccccc2c1N(C(=O)CCl)c1ccc([N+](=O)[O-])cc1`: the “hERG current change (%, negative = inhibition) at 1uM” value is given as -3.08%.

For `O=C(Cc1cccc2ccccc12)NCCOc1ccccc1F`, the “hERG current change (%, negative = inhibition) at 1uM” value was 9.72%.

Turning to `CCOc1ccc(NC(=O)c2ccc(NC(=O)COC(=O)c3ccc(NC(=O)CC#N)cc3)cc2)cc1`, the “hERG current change (%, negative = inhibition) at 1uM” value stood at 8.33%.

Take `CCCCN(CC)C(=O)Cn1cnc2sc(C)c(S(=O)(=O)N3CCC(C)CC3)c2c1=O`: the “hERG current change (%, negative = inhibition) at 1uM” value is -4.14%.

As to `COc1ccccc1N1CCN(Cc2nc(N)nc(Nc3ccc(C)cc3)n2)CC1`, the “hERG current change (%, negative = inhibition) at 1uM” value is recorded as -30.8%.

Consider `O=C(NCc1cccnc1)c1ccc(Cl)c(S(=O)(=O)N2CCCCCC2)c1`, for which the “hERG current change (%, negative = inhibition) at 1uM” value is recorded as -2.91%.

As for `N#Cc1c(Nc2ccc(F)cc2)sc(C(=O)c2ccc(F)cc2)c1N`, the “hERG current change (%, negative = inhibition) at 1uM” value is on record as 2.63%.

Turning to `Cc1ccc(-c2nnn(CC(=O)N(CCN3CCOCC3)C(C(=O)NC(C)(C)C)c3ccc(C)o3)n2)cc1` (stereo not shown), the “hERG current change (%, negative = inhibition) at 1uM” value worked out at 8.86%.

In the case of `Cc1cc(OC(=O)c2ccccc2C)c([N+](=O)[O-])c(=O)[nH]1`, the “hERG current change (%, negative = inhibition) at 1uM” value was found to be 14.4%.

For the molecule `Cc1nc2ccccc2nc1CSc1nncs1`, the “hERG current change (%, negative = inhibition) at 1uM” value was 8.25%.

Take `Cc1ccccc1CN1CCNCC1.Cl`: the “hERG current change (%, negative = inhibition) at 1uM” value stood at 13.1%.

For the molecule `COc1ccc2nc(NC(=O)Nc3cccc4ccccc34)sc2c1`, the “hERG current change (%, negative = inhibition) at 1uM” value is recorded as 7.55%.

For the molecule `COc1ccc(S(=O)(=O)N2CCOCC2)cc1NC(=O)CCc1cc(OC)c(OC)c(OC)c1`, the “hERG current change (%, negative = inhibition) at 1uM” value came out at 2.32%.

With `c1ccc2c(c1)CCCN2c1nc(N2CCOCC2)nc(N2CCOCC2)n1`, the “hERG current change (%, negative = inhibition) at 1uM” value stood at 14.5%.

Take `Cc1cc(OCc2cccc(S(=O)(=O)N3CCOCC3)c2)ccc1Cl`: the “hERG current change (%, negative = inhibition) at 1uM” value worked out at 4.05%.

`Cc1ccccc1CN1C[C@@H]2C[C@@H](c3cn[nH]c3-c3ccccc3)N3CCC[C@@]23C1=O`: the “hERG current change (%, negative = inhibition) at 1uM” value was 11.2%.

With `CCNC(=S)N(Cc1ccco1)Cc1cc2cc(OCC)ccc2[nH]c1=O`, the “hERG current change (%, negative = inhibition) at 1uM” value came out at 5.19%.

As for `COCCNC(=O)CSc1nc2cc(OC)c(OC)cc2c(=O)n1Cc1ccc(OC)cc1`, the “hERG current change (%, negative = inhibition) at 1uM” value was 2.15%.

In the case of `Cc1ccc(SCC(=O)Nc2ccc(F)cc2[N+](=O)[O-])cc1C`, the “hERG current change (%, negative = inhibition) at 1uM” value is reported as 10.8%.

Consider `Cc1cccc(OCC(=O)N2CCCc3ccccc32)c1`, for which the “hERG current change (%, negative = inhibition) at 1uM” value stood at 6.48%.

As for `CN(CC(=O)Nc1cccc(F)c1)C(=O)c1cc([N+](=O)[O-])ccc1N1CCOCC1`, the “hERG current change (%, negative = inhibition) at 1uM” value was found to be 8.64%.

(Values after publication PMC4336329 (PLoS ONE, 2015).)
